Laboratory results from PubChem BioAssay AID504332 (National Center for Advancing Translational Sciences (NCATS), 2011).
Among all 350,000 compounds or so, about 31,000 (8.9%) were called active. This list was built around the results that the source calls inconclusive (neither active nor inactive); the mix of calls is not that of the screen. Calls follow the shape of the dose curve; as a rule, active = well fitted inhibition curve with a large enough effect; inconclusive = small, poorly fitted or top-dose-only effect; inactive = no such curve, though single readings can be large or run the other way. Potencies beside an inconclusive call are fits to weak or partial responses and may not hold up.

Biological target: Histone-lysine N-methyltransferase EHMT2 (Homo sapiens) (UniProt Q96KQ7)
UniProt Q96KQ7, sequence (Q96KQ7 whole entry, looked up): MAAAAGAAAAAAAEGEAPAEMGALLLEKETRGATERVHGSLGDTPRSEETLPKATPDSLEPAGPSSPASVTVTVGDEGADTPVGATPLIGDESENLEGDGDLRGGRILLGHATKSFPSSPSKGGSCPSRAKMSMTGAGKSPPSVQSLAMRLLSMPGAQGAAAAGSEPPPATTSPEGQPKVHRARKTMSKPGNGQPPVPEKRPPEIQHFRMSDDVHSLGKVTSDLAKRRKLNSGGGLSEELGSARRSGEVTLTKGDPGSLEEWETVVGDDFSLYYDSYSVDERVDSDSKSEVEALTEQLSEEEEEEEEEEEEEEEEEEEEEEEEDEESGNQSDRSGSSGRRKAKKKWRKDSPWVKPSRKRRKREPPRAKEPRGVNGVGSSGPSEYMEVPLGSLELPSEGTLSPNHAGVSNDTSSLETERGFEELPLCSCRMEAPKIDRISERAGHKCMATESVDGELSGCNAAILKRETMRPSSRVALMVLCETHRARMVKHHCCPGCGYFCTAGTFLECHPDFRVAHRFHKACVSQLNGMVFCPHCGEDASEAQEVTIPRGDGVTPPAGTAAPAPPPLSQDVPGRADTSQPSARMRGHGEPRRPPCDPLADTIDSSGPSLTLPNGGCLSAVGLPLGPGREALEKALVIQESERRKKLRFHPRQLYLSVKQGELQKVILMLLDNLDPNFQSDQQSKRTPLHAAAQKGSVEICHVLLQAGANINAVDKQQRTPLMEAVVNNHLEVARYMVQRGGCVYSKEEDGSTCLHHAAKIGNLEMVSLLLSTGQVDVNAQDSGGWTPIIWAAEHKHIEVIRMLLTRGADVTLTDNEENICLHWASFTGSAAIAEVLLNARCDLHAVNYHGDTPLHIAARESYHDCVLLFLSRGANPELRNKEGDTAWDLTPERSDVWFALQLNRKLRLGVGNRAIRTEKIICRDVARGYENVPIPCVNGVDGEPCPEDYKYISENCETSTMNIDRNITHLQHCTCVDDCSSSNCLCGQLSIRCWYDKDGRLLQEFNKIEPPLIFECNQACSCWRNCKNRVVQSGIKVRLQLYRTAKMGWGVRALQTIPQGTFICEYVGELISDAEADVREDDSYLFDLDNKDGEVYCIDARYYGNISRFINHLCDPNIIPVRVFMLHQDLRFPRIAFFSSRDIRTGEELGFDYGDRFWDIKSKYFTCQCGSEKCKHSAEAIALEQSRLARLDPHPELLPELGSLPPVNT
Test: qHTS Assay for Inhibitors of Histone Lysine Methyltransferase G9a; also: nearly all actives have a fitted effect of over 75% in size
Details: G9a H3K9 monomethylation, AlphaScreen, 2 h; activity, negative = inhibition: at 59 µM (top of the series) unless noted
Summary of the method: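 AlphaScreen read-out: biotin-H3K9 peptide (500 nM) methylation by 20 nM enzyme with 20 uM SAM, 2 h at room temperature after 15 min compound preincubation; anti-monomethyl H3K9 antibody plus donor/acceptor beads, 10 min dark.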
% is scaled to controls: 0 for no effect and ±100 for the full control effect; potency is read from the fitted curve at half-maximal effect; tags tell the direction and shape of the fitted curve.

With `COc1ccc(C(=O)CN2CCN(c3ncccn3)CC2)cc1` as the molecule, how does the Potency read?
The Potency was active: 8.91 µM.

Which “activity, negative = inhibition” value does the source give for `O=C(CCC1N=C2c3ccccc3N=C(SCC(=O)Nc3ccc(F)cc3)N2C1=O)NCc1cccs1` (stereo not drawn) here?
The value was inactive: 3.82%.

How did the Potency turn out when `O=C(COc1ccc(Cl)cc1)NCCN1CCCC1` was run?
The Potency was inconclusive: 89.1 µM [inhibitor, single point].

With `Cn1cccc1C(=O)NC(=O)COC(=O)Cc1coc2ccc3ccccc3c12` as the molecule, how does the Potency read?
The Potency was inconclusive: 44.7 µM [inhibitor, partial curve, poor fit].

Which Potency does the source give for `Cc1ccc(CNC(=O)c2sc3nc4n(c(=O)c3c2C)CCCCC4)cc1` here?
The Potency was inconclusive: 8.91 µM [inhibitor, partial curve].

`CCn1ccnc1CN(C)C(=O)CC1C(=O)NCCN1Cc1c(F)cccc1Cl` (stereo not drawn) was tested. Which Potency did it give?
The Potency was inconclusive: 79.4 µM [inhibitor, partial curve, poor fit].

For `CC1CCc2nn(CC(=O)NCCN3CCOCC3)cc2C1` (stereo not drawn), which Potency is on record?
The Potency was inconclusive: 35.5 µM [inhibitor, single point].

With `COc1ccccc1NC(=O)CSC1=Nc2ccccc2C2=NC(CC(=O)NCc3ccc4c(c3)OCO4)C(=O)N12` (stereo not drawn) as the molecule, how does the “activity, negative = inhibition” value read?
Its value is inactive: -3.17%.

`Cn1c(=O)[nH]c(=O)c2c1nc(CN1CCN(c3cccc(Cl)c3)CC1)n2CCCc1ccccc1` was tested. Which Potency did it give?
The Potency was inconclusive: 50.1 µM [inhibitor, partial curve, poor fit].

`COc1ccc(C)cc1NC(=O)C(OC(=O)c1ccc([N+](=O)[O-])o1)c1ccccc1` (stereo not drawn) was tested. Which Potency did it give?
Its Potency is inconclusive: 39.8 µM [inhibitor, single point].

How did the Potency turn out when `CN(Cc1ccccc1)S(=O)(=O)c1ccc(N2CCCC2=O)cc1` was run?
Its Potency is inconclusive: 3.55 µM [inhibitor, single point].

With `COCCn1c(C)cc(C(=O)COC(=O)c2n[nH]c3ccccc23)c1C` as the molecule, how does the Potency read?
The Potency was inconclusive: 50.1 µM [inhibitor, partial curve, poor fit].

How did the Potency turn out when `CC1(C2CC2)NC(=O)N(CC(=O)NCc2ccc(Cl)cc2Cl)C1=O` (stereo not drawn) was run?
Its Potency is inconclusive: 31.6 µM [inhibitor, single point].

For `Cc1ccc(S(=O)(=O)n2c3ccc(Cl)cc3c3nc(C)sc32)cc1`, which Potency is on record?
Its Potency is inconclusive: 0.891 µM [inhibitor, partial curve, poor fit].

`COc1cc(OC)c(N(C)C(=O)c2cc3c(=O)oc4ccccc4c3s2)cc1Cl` was tested. Which “activity, negative = inhibition” value did it give?
Its value is inactive: 3.37%.

For `COc1ccc(NC(=O)N2CCCC(c3ccccc3)C2)cc1` (stereo not drawn), which “activity, negative = inhibition” value is on record?
Its value is inactive: 45.3% [at 102 µM].

Which “activity, negative = inhibition” value does the source give for `CC(C)S(=O)(=O)CC(=O)c1ccc(Cl)cc1` here?
The value was inactive: 13% [at 102 µM].

With `O=c1c2ccccc2n2c(-c3ccccc3F)nnc2n1CCc1ccccc1` as the molecule, how does the “activity, negative = inhibition” value read?
Its value is inactive: -42.2%.

`CC(C)[C@@H](C(=O)OCC(=O)Nc1ccc2c(c1)OCO2)N1C(=O)c2ccccc2C1=O` was tested. Which Potency did it give?
Its Potency is inconclusive: 39.8 µM [inhibitor, single point].

`c1ccc(Nc2ncnc3sccc23)cc1` was tested. Which “activity, negative = inhibition” value did it give?
Its value is inactive: -8.58% [at 102 µM].

With `c1ccc2c(c1)oc1c(N3CCN(Cc4ccc5c(c4)OCO5)CC3)ncnc12` as the molecule, how does the activity, negative = inhibition read?
Its activity, negative = inhibition is inconclusive: -61% [inhibitor].

With `N#CCSc1ccccc1NC(=O)CN1C(=O)C2CC=CCC2C1=O` (stereo not drawn) as the molecule, how does the Potency read?
Its Potency is active: 44.7 µM.

For `COc1ccc(N(C)C(=S)Nc2ccc3nc(C)c(C)nc3c2)cc1`, which Potency is on record?
The Potency was inconclusive: 10 µM [inhibitor, partial curve, poor fit].

With `COc1ccc2c(c1)CC/C(=C\C=C\c1ccccc1)C2=O` as the molecule, how does the Potency read?
Its Potency is inconclusive: 35.5 µM [inhibitor, single point].

With `COc1ccc(C(=O)N/N=C/c2ccc(N3CCOCC3)o2)cc1OC` as the molecule, how does the Potency read?
Its Potency is active: 8.91 µM.

Which Potency does the source give for `COc1cccc2cc(C(=O)C3=C(O)C(=O)N(CCCN(C)C)C3c3ccncc3)oc12` (stereo not drawn) here?
The Potency was inconclusive: 25.1 µM [inhibitor, single point].

How did the “activity, negative = inhibition” value turn out when `COCc1cc(=O)[nH]c2cc(NC(=O)C3CC3)c(C)cc12` was run?
The value was inactive: 22.1%.

With `C=CCn1c(COc2ccc(F)cc2)nnc1SCC(=O)NC(=O)NCc1ccco1` as the molecule, how does the Potency read?
The Potency was inconclusive: 39.8 µM [inhibitor, single point].

How did the Potency turn out when `CC[C@@H]1C=C(C)C[C@H](C)C[C@H](OC)[C@H]2O[C@@](O)(C(=O)C(=O)N3CCCC[C@H]3C(=O)O[C@H](/C(C)=C/[C@@H]3CC[C@@H](O)[C@H](OC)C3)[C@H](C)[C@@H](O)CC1=O)[C@H](C)C[C@@H]2OC` was run?
Its Potency is inconclusive: 89.1 µM [inhibitor, single point].

`CN(CC(=O)Nc1ccc(OC(F)(F)F)cc1)C1CCCCC1` was tested. Which activity, negative = inhibition did it give?
Its activity, negative = inhibition is inconclusive: -92.4% [inhibitor] [at 12.7 µM].

With `Cc1nc2ccc(C(=O)OCc3ccccc3Br)cc2nc1C` as the molecule, how does the “activity, negative = inhibition” value read?
The value was inactive: 27.5% [at 102 µM].

`CCc1ccc(N2CSC3=C(C#N)C(c4cccs4)CC(=O)N3C2)cc1` (stereo not drawn) was tested. Which Potency did it give?
Its Potency is inconclusive: 3.16 µM [inhibitor, single point].

`CCOC(=O)N1CCN(CC(=O)Nc2sc(CC)cc2C(=O)c2ccc(OC)cc2)CC1` was tested. Which Potency did it give?
Its Potency is active: 28.2 µM.

`Cc1ccc(Cn2ncc3c(NN)ncnc32)cc1` was tested. Which Potency did it give?
Its Potency is inconclusive: 89.1 µM [inhibitor, single point].

`Cc1ccc2c(c1)-c1nc3ccccc3cc1C2=NC1CCCCC1` was tested. Which Potency did it give?
The Potency was inconclusive: 20 µM [inhibitor, single point].

Which Potency does the source give for `CC(=O)N(C(C)=O)c1nc2nc(C)cc(C)n2n1` here?
Its Potency is inconclusive: 89.1 µM [inhibitor, single point].

With `COc1ccc(C)cc1NC(=O)c1cc(S(=O)(=O)N2CCc3ccccc3C2)ccc1F` as the molecule, how does the “activity, negative = inhibition” value read?
Its value is inactive: -3.06%.

`Cc1ncc(CO)c(/C=N/NC(=O)c2cc(O)c(O)c(O)c2)c1O` was tested. Which Potency did it give?
The Potency was inconclusive: 31.6 µM [inhibitor, partial curve, poor fit].

`O=C(CSc1nc(-c2ccccc2)cs1)Nc1ccccc1[N+](=O)[O-]` was tested. Which Potency did it give?
The Potency was inconclusive: 28.2 µM [inhibitor, single point].

With `Cc1oc(-c2ccc(C(=O)NCc3ccccc3Cl)cc2)nc1CN1CCc2ccccc21` as the molecule, how does the “activity, negative = inhibition” value read?
The value was inactive: -31.1%.

How did the “activity, negative = inhibition” value turn out when `CCCn1c(CCC(=O)Nc2ccc(C)c(Cl)c2)nc2cccnc21` was run?
The value was inactive: -5.06%.

`Cc1cccc(N2C(=O)CC(N3CCC(c4nc5ccccc5[nH]4)CC3)C2=O)c1` (stereo not drawn) was tested. Which Potency did it give?
Its Potency is inconclusive: 39.8 µM [inhibitor, single point].

How did the Potency turn out when `CC(C)(CS(=O)(=O)[O-])NC(=O)CC[N+](C)(C)CCO` was run?
The Potency was inconclusive: 8.91 µM [inhibitor, partial curve, poor fit].

`COc1cc(/C=C2\SC(N3CCc4ccccc4C3)=NC2=O)cc(OC)c1OC` was tested. Which Potency did it give?
Its Potency is inconclusive: 89.1 µM [inhibitor, single point].

How did the Potency turn out when `Cc1onc(-c2ccncc2)c1C(=O)O` was run?
Its Potency is inconclusive: 89.1 µM [inhibitor, single point].

How did the Potency turn out when `CC(C)[C@@H]1NC(=O)c2cc([N+](=O)[O-])cc(I)c2NCC[C@@H](C(N)=O)NC(=O)[C@H](CO)NC1=O` was run?
Its Potency is active: 12.6 µM.

How did the Potency turn out when `CC(C)Cc1c2c([nH]c(=S)c1C#N)CCCC2` was run?
Its Potency is active: 2.24 µM.

With `CSc1ccccc1C(=O)Nc1ccc(C)cc1C` as the molecule, how does the activity, negative = inhibition read?
The activity, negative = inhibition was inconclusive: -79.4% [inhibitor].

`CN(C)CCC#CC(O)(c1ccccc1)c1ccccc1` was tested. Which “activity, negative = inhibition” value did it give?
The value was inactive: 28.8%.

Which Potency does the source give for `Cc1ccc(C)c(-n2c(CNC(=O)c3ccco3)nnc2SCC(=O)Nc2nnc(C)s2)c1` here?
Its Potency is inconclusive: 100 µM [inhibitor, single point].

For `Cc1ccc(S(=O)(=O)C(CNC(=O)C(=O)NCCc2ccc(Cl)cc2)c2cccs2)cc1` (stereo not drawn), which “activity, negative = inhibition” value is on record?
The value was inactive: -0.302%.

For `O=C(/C=C/c1ccco1)N1CCN(C/C=C/c2ccccc2)CC1`, which Potency is on record?
The Potency was inconclusive: 20 µM [inhibitor, single point].

Which Potency does the source give for `CCn1c(C)[n+](Cc2ccccc2)c2ccc(Cl)cc21` here?
Its Potency is inconclusive: 39.8 µM [inhibitor, single point].

With `CC(C)C(=O)Nc1ccc(NC(=S)NC(=O)c2ccc([N+](=O)[O-])cc2)cc1` as the molecule, how does the activity, negative = inhibition read?
The activity, negative = inhibition was inactive: 22% [at 0.501 µM].

With `Cc1ccc(CNC(=O)CN2CCN(Cc3ccc(C)cc3)C2=O)cc1` as the molecule, how does the Potency read?
Its Potency is inconclusive: 4.47 µM [inhibitor, partial curve, poor fit].

`CCCS(=O)(=O)c1nnnn1-c1cccc(OC)c1` was tested. Which Potency did it give?
The Potency was inconclusive: 50.1 µM [inhibitor, partial curve, poor fit].

`CCC1=C(c2ccc(C)cc2)S(=O)(=O)N=C1N1CCC(C(=O)NCCc2ccc(Cl)cc2)CC1` was tested. Which “activity, negative = inhibition” value did it give?
Its value is inactive: -5.63%.

Which Potency does the source give for `O=C(Nc1nc2ccccc2s1)C1CC(=O)N(c2ccc(Cl)cc2)C1` (stereo not drawn) here?
The Potency was inconclusive: 1 µM [inhibitor, partial curve, poor fit].

`Cc1c(CNC2CCC(C)CC2)c(C(=O)O)c(C)n1Cc1ccccc1` (stereo not drawn) was tested. Which Potency did it give?
The Potency was inconclusive: 89.1 µM [inhibitor, single point].

With `O=C(CCS(=O)(=O)c1cc2c3c(c1)CCN3C(=O)CC2)Nc1cccc(Br)c1` as the molecule, how does the Potency read?
The Potency was inconclusive: 15.8 µM [inhibitor, partial curve, poor fit].

For `CC1CCc2sc(C(=O)Nc3ccc(N4CCOCC4)cc3)cc2C1` (stereo not drawn), which Potency is on record?
The Potency was active: 31.6 µM.

Which Potency does the source give for `Cc1ccc(N=c2ssnc2Cl)cc1` here?
The Potency was active: 1.58 µM.

Which Potency does the source give for `CC[n+]1c(-c2ccccc2)csc1Nc1c(C)n(C)n(-c2ccccc2)c1=O` here?
Its Potency is inconclusive: 35.5 µM [inhibitor, single point].

With `O=C(Nc1cnn(Cc2ccc(Cl)cc2Cl)c1)c1noc2c1CCc1ccccc1-2` as the molecule, how does the “activity, negative = inhibition” value read?
The value was inactive: -40.9%.

How did the Potency turn out when `O=C(O)c1ccc(N2CCN(c3ccc(Cl)cc3)CC2)c([N+](=O)[O-])c1` was run?
The Potency was inconclusive: 70.8 µM [inhibitor, single point].

With `COc1cc(NC(=O)CS(=O)(=O)c2ccccc2)cc(OC)c1OC` as the molecule, how does the Potency read?
Its Potency is inconclusive: 22.4 µM [inhibitor, single point].

`O=S(=O)(Nc1nc2ccccc2[nH]1)c1ccc2ccccc2c1` was tested. Which Potency did it give?
The Potency was inconclusive: 1.78 µM [inhibitor, partial curve, poor fit].

How did the Potency turn out when `CCOC(=O)c1sc(NC(=O)c2cccnc2)c(C#N)c1C` was run?
The Potency was active: 11.2 µM.
